Test results published in PMC12820563, “FoxP3 forms a head-to-head dimer in vivo and stabilizes its multimerization on adjacent microsatellites”.
The other results are listed elsewhere or left out.

The sequences below were run against T1, MBP-FoxP1dN (Mus musculus, UniProt P58462 326-579) (assay: PD-seq (MBP pull-down with sequencing); 20 mM Tris-HCl pH 7.5, 100 mM NaCl, 1.5 mM MgCl2, 0.4 uM protein, 0.1 uM dsDNA library, 30 min, room temperature, amylose pull-down; high values mean tight binding). Settings: protein: recombinant; tags: His6-MBP; chain copies: 2; dsDNA, one strand shown.
T1 sequence: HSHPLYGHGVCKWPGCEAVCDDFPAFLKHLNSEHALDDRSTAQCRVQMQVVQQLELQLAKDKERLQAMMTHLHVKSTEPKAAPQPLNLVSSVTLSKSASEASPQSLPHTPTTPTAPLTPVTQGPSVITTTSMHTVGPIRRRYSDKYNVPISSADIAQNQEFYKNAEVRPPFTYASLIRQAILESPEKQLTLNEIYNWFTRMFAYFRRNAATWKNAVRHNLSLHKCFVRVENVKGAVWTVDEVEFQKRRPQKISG
Outline: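 A fragment of mouse FoxP3 or FoxP1 without its N-terminus, carrying a His6-MBP tag and produced in E. coli, was combined at 0.4 µM with a 0.1 µM degenerate double-stranded DNA library filled in with Klenow. The mixture sat for 30 min at room temperature in Tris pH 7.5 buffer containing NaCl and MgCl2. Protein–DNA complexes were captured on amylose resin, washed three times, and the DNA was freed with proteinase K, barcoded by PCR and sequenced on Illumina. Binding is expressed as reads-per-million enrichment of pull-down over input, with replicates pooled.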
For “GATGATTGTTCTCCCAGCTGATGAATTTTTGCAGTCGAGTAAACAAATTTTCCTAATCTTTCTGTTCAAGCGCCATCTAC”, the binding signal was 1.02 RPM ratio (pull-down/input). “GATGATTGTTCTCCCAGCTGATGAATTTGTATCGTCGAGTAAACAAATTTTCCTAATCTTTCTGTTCAAGCGCCATCTAC” was tested, and the binding signal was 1.22 RPM ratio (pull-down/input). “GATGATTGTTCTCCCAGCTGATGAATTGACGCAATCGAGTAAACAAATTTTCCTAATCTTTCTGTTCAAGCGCCATCTAC” was tested, and the binding signal was 1.58 RPM ratio (pull-down/input). For “GATGATTGTTCTCCCAGCTGATGAATTTAAAGCATCGAGTAAACAAATTTTCCTAATCTTTCTGTTCAAGCGCCATCTAC”, the binding signal was 1.1 RPM ratio (pull-down/input). “GATGATTGTTCTCCCAGCTGATGAATTCGTCACCTCGAGTAAACAAATTTTCCTAATCTTTCTGTTCAAGCGCCATCTAC” was tested, and the binding signal was 0.867 RPM ratio (pull-down/input). In the case of “GATGATTGTTCTCCCAGCTGATGAATTCCCATGATCGAGTAAACAAATTTTCCTAATCTTTCTGTTCAAGCGCCATCTAC”, the binding signal is reported as 0.884 RPM ratio (pull-down/input). In the case of “GATGATTGTTCTCCCAGCTGATGAATTGCGAAGATCGAGTAAACAAATTTTCCTAATCTTTCTGTTCAAGCGCCATCTAC”, the binding signal is reported as 0.983 RPM ratio (pull-down/input). “GATGATTGTTCTCCCAGCTGATGAATTTGTGGCTTCGAGTAAACAAATTTTCCTAATCTTTCTGTTCAAGCGCCATCTAC” was tested, and the binding signal was 1.07 RPM ratio (pull-down/input). With “GATGATTGTTCTCCCAGCTGATGAATTGACAGGGTCGAGTAAACAAATTTTCCTAATCTTTCTGTTCAAGCGCCATCTAC” the binding signal was 1.05 RPM ratio (pull-down/input). In the case of “GATGATTGTTCTCCCAGCTGATGAATTTCCCTAATCGAGTAAACAAATTTTCCTAATCTTTCTGTTCAAGCGCCATCTAC”, the binding signal is reported as 0.957 RPM ratio (pull-down/input). For “GATGATTGTTCTCCCAGCTGATGAATTTTCGACGTCGAGTAAACAAATTTTCCTAATCTTTCTGTTCAAGCGCCATCTAC”, the binding signal was 0.942 RPM ratio (pull-down/input). For “GATGATTGTTCTCCCAGCTGATGAATTAGGCTCATCGAGTAAACAAATTTTCCTAATCTTTCTGTTCAAGCGCCATCTAC”, the binding signal was 0.944 RPM ratio (pull-down/input). In the case of “GATGATTGTTCTCCCAGCTGATGAATTGCCACGATCGAGTAAACAAATTTTCCTAATCTTTCTGTTCAAGCGCCATCTAC”, the binding signal is reported as 0.945 RPM ratio (pull-down/input). For “GATGATTGTTCTCCCAGCTGATGAATTGTGACTTTCGAGTAAACAAATTTTCCTAATCTTTCTGTTCAAGCGCCATCTAC”, the binding signal was 1.19 RPM ratio (pull-down/input). For “GATGATTGTTCTCCCAGCTGATGAATTTTCAGGGTCGAGTAAACAAATTTTCCTAATCTTTCTGTTCAAGCGCCATCTAC”, the binding signal was 0.809 RPM ratio (pull-down/input). In the case of “GATGATTGTTCTCCCAGCTGATGAATTCTTCTCGTCGAGTAAACAAATTTTCCTAATCTTTCTGTTCAAGCGCCATCTAC”, the binding signal is reported as 0.886 RPM ratio (pull-down/input). “GATGATTGTTCTCCCAGCTGATGAATTTCATTCCTCGAGTAAACAAATTTTCCTAATCTTTCTGTTCAAGCGCCATCTAC” was tested, and the binding signal was 0.839 RPM ratio (pull-down/input). “GATGATTGTTCTCCCAGCTGATGAATTCTCTAAGTCGAGTAAACAAATTTTCCTAATCTTTCTGTTCAAGCGCCATCTAC” was tested, and the binding signal was 0.864 RPM ratio (pull-down/input). In the case of “GATGATTGTTCTCCCAGCTGATGAATTCGAGCCATCGAGTAAACAAATTTTCCTAATCTTTCTGTTCAAGCGCCATCTAC”, the binding signal is reported as 0.845 RPM ratio (pull-down/input). For “GATGATTGTTCTCCCAGCTGATGAATTCTAACCGTCGAGTAAACAAATTTTCCTAATCTTTCTGTTCAAGCGCCATCTAC”, the binding signal was 0.872 RPM ratio (pull-down/input). For “GATGATTGTTCTCCCAGCTGATGAATTCAGCATTTCGAGTAAACAAATTTTCCTAATCTTTCTGTTCAAGCGCCATCTAC”, the binding signal was 1.05 RPM ratio (pull-down/input). “GATGATTGTTCTCCCAGCTGATGAATTTGAGGTTTCGAGTAAACAAATTTTCCTAATCTTTCTGTTCAAGCGCCATCTAC” was tested, and the binding signal was 0.755 RPM ratio (pull-down/input). “GATGATTGTTCTCCCAGCTGATGAATTCTAGTTGTCGAGTAAACAAATTTTCCTAATCTTTCTGTTCAAGCGCCATCTAC” was tested, and the binding signal was 1.47 RPM ratio (pull-down/input). With “GATGATTGTTCTCCCAGCTGATGAATTAAGTTAGTCGAGTAAACAAATTTTCCTAATCTTTCTGTTCAAGCGCCATCTAC” the binding signal was 0.966 RPM ratio (pull-down/input). With “GATGATTGTTCTCCCAGCTGATGAATTCGAATGATCGAGTAAACAAATTTTCCTAATCTTTCTGTTCAAGCGCCATCTAC” the binding signal was 0.904 RPM ratio (pull-down/input). “GATGATTGTTCTCCCAGCTGATGAATTCAACTATTCGAGTAAACAAATTTTCCTAATCTTTCTGTTCAAGCGCCATCTAC” was tested, and the binding signal was 0.958 RPM ratio (pull-down/input). “GATGATTGTTCTCCCAGCTGATGAATTAGAGCGATCGAGTAAACAAATTTTCCTAATCTTTCTGTTCAAGCGCCATCTAC” was tested, and the binding signal was 0.889 RPM ratio (pull-down/input). In the case of “GATGATTGTTCTCCCAGCTGATGAATTTGATTTCTCGAGTAAACAAATTTTCCTAATCTTTCTGTTCAAGCGCCATCTAC”, the binding signal is reported as 0.937 RPM ratio (pull-down/input). With “GATGATTGTTCTCCCAGCTGATGAATTGGGGGTGTCGAGTAAACAAATTTTCCTAATCTTTCTGTTCAAGCGCCATCTAC” the binding signal was 0.816 RPM ratio (pull-down/input). In the case of “GATGATTGTTCTCCCAGCTGATGAATTCCTGGCGTCGAGTAAACAAATTTTCCTAATCTTTCTGTTCAAGCGCCATCTAC”, the binding signal is reported as 0.824 RPM ratio (pull-down/input). With “GATGATTGTTCTCCCAGCTGATGAATTCAGATGATCGAGTAAACAAATTTTCCTAATCTTTCTGTTCAAGCGCCATCTAC” the binding signal was 0.864 RPM ratio (pull-down/input). For “GATGATTGTTCTCCCAGCTGATGAATTAATTTTGTCGAGTAAACAAATTTTCCTAATCTTTCTGTTCAAGCGCCATCTAC”, the binding signal was 0.994 RPM ratio (pull-down/input).
